“And” between values parts separate entries of the source, which are not always exact repeats. Equal entries are not always repeated. About 50,000 (12%) of roughly 420,000 compounds were called active. The inconclusive results got no clear call from the source; some entries with a clear call stand among them for comparison. Calls follow the shape of the dose curve; as a rule, active = well fitted inhibition curve with a large enough effect; inconclusive = small, poorly fitted or top-dose-only effect; inactive = flat fitted curve, though single readings scatter. Where the call is inconclusive, the potency comes from a doubtful curve fit.
assay: qHTS for Inhibitors of human tyrosyl-DNA phosphodiesterase 1 (TDP1): qHTS in cells in presence of CPT; conditions: chicken DT40 Tdp1-/-;hTDP1 cells + 20 nM CPT, ATP luminescence, 48 h; series mostly up to 46.2 µM; also: nearly all actives have a fitted effect of over 55% in size
Method in brief: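 Cell growth measured by CellTiter-Glo luminescence after a minimum 48 h, 37 C compound exposure with 20 nM CPT in Tdp1-knockout DT40 cells stably expressing hTDP1, seeded 400/well; qHTS titration format.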
Potency is read from the fitted curve at half-maximal effect; tags tell the direction and shape of the fitted curve.

SMILES	Potency
COC(=O)c1cc2n(n1)CCN(Cc1ccc(C)cc1)C2=O	inactive
Cc1ccc(CN2CC(C(=O)NCCCSc3ccccc3)CC2=O)cc1 (stereo unspecified)	inconclusive: 20.6 µM [inhibitor, single point]
CC(C)(C)C(=O)Nc1nnc(CSCc2ccccc2F)s1	inconclusive: 23.1 µM [inhibitor, partial curve, poor fit]
O=C(CCn1ccnc1)Nc1cc(Cl)ccc1O	inactive
O=C(NCc1ccncc1)Nc1ccc(Cc2ccc(NC(=O)NCc3ccncc3)cc2)cc1	inconclusive: 6.51 µM [inhibitor, partial curve]
Cc1ccc(C(OCC(C)(C)C[N+](C)(C)C)c2ccccc2)cc1 (stereo unspecified)	active: 5.8 µM
CCc1ccc(-n2c(CSc3nnnn3-c3ccccc3)nc3ccccc3c2=O)cc1	inconclusive: 29.1 µM [inhibitor, single point]
CSCCC(NC(=O)C1CCC(C)CC1)C(=O)N1CCN(c2ccccn2)CC1 (stereo unspecified)	inconclusive: 20.6 µM [inhibitor, single point]
COc1ccc(-n2nnc3c(=O)n(CC(=O)N4CCC(Cc5ccccc5)CC4)cnc32)cc1	inconclusive: 23.1 µM [inhibitor, single point]
CN1CCN(C(=S)NC(CC(=O)c2ccccc2)c2ccccc2)CC1 (stereo unspecified)	inactive
Fc1ccccc1Cc1nnc2n1N=C(c1ccc(Cl)cc1)CS2	inactive
O=C(NCc1ccccc1C(F)(F)F)C1CCC(=O)N(C2CCCCCC2)C1 (stereo unspecified)	inconclusive: 16.4 µM [inhibitor, single point]
CNc1cncc(-c2c(OC)cccc2OC)n1	inconclusive: 29.1 µM [inhibitor, single point]
O=C(COC(=O)c1ccc(-c2cnc3ccccc3n2)cc1)c1ccccc1	inactive
CC(=O)C(Sc1nc(-c2ccccc2Cl)nc2c1c(=O)n(C)c(=O)n2C)C(=O)N(C)C (stereo unspecified)	inconclusive: 29.1 µM [inhibitor, single point]
COc1ccc(-c2sc3cc4c(cc3c2C#Cc2ccc(N)cc2)OCO4)cc1	inconclusive: 23.1 µM [inhibitor, single point]
CCC(=O)N(C1=C(NC(C)C)C(=O)c2ccccc2C1=O)C(C)C	active: 20.6 µM
Cc1cc(N)cc(C)c1-c1c(Br)cc(N)cc1Br	active: 13 µM
Cc1ccc(/C=c2\s/c(=C(/C#N)C(=O)N3CCCC3)n(Cc3ccco3)c2=O)s1	inconclusive: 29.1 µM [inhibitor, single point]
Cc1cccc(N2CCN(C(=O)C3CCC(=O)N(C4CC4)C3)CC2)c1C (stereo unspecified)	active: 16.4 µM
O=S1(=O)CCN(Cc2ccc(Cl)cc2)CC1	inconclusive: 6.51 µM [inhibitor, single point]
COc1ccc(N(C)S(=O)(=O)c2ccc(Cl)c(C(=O)NCC(C)(C)N3CCOCC3)c2)cc1	active: 9.2 µM
CC1(C)C(=O)Nc2ccccc2N1C(=O)COC(=O)c1cccc(O)c1	inconclusive: 29.1 µM [inhibitor, single point]
COc1cc2nc(N3CCN(C)CC3)nc(NC(C)C)c2cc1OC	inconclusive: 35.5 µM [inhibitor, single point]

SMILES	Potency
COc1ccc(CCn2cnc3c([nH]c4ccccc43)c2=O)cc1	inactive
Cc1csc(N/N=C/c2c(F)cccc2Cl)n1	inconclusive: 13 µM [inhibitor, partial curve]
Cc1ccc(S(=O)(=O)N(C)c2ccccc2)cc1	inconclusive: 16.4 µM [inhibitor, single point]
CCC(=O)N1CCc2cc(S(=O)(=O)NC(CC(C)C)C(=O)NCc3cccc(OC)c3)ccc21 (stereo unspecified)	inactive
Cc1ccc(NC(=O)NCc2c(-n3cccc3)sc3c2CCCC3)c(Cl)c1	inconclusive: 29.1 µM [inhibitor, single point]
COc1ccc(C2CC(=O)C=C(NCCC(C)C)C2)cc1 (stereo unspecified)	inconclusive: 25.9 µM [inhibitor, single point]
COc1cccc(C(=O)c2cn(CC(=O)Nc3ccc4c(c3)OCCO4)c3nc(C)ccc3c2=O)c1	inconclusive: 29.1 µM [inhibitor, single point]
C[C@H]1CN([C@@H](C)CO)S(=O)(=O)c2ccc(C#Cc3ccccn3)cc2O[C@@H]1CN(C)C(=O)C1CC1	inconclusive: 32.6 µM [inhibitor, single point]
OCCCc1nc2ccccc2n1Cc1ccccc1	inconclusive: 29.1 µM [inhibitor, single point]
Cc1cc2oc(=O)cc(CN3CCCCC3)c2cc1O	inconclusive: 29.1 µM [inhibitor, single point]
COc1ccccc1C/C(N)=N/OC(=O)c1ccc(C)c([N+](=O)[O-])c1	inconclusive: 16.4 µM [inhibitor, partial curve]
COc1ccc(S(=O)(=O)N2CCOC2CNC(=O)C(=O)NCCc2ccc(OC)c(OC)c2)cc1 (stereo unspecified)	active: 16.4 µM
COC(=O)c1[nH]c2cccc(OC)c2c1NC(=O)CN1CCN(c2cccc(OC)c2)C(C)C1 (stereo unspecified)	inconclusive: 23.1 µM [inhibitor, single point]
CSc1nc(NCc2ccco2)c2ccccc2n1	inconclusive: 18.4 µM [inhibitor, single point]
CC(C)c1nc(CNC(=O)CC2C(=O)NCCN2Cc2cccc(F)c2F)cs1 (stereo unspecified)	inactive
COc1cc(NC(=O)C2CCN(S(=O)(=O)c3c(C)noc3/C=C/c3c(C)cc(C)cc3C)CC2)cc(OC)c1	active: 13 µM
COc1ccc(OC)c(CNc2ncc(-c3ccc(Cl)cc3)n2C)c1	active: 16.4 µM
COc1ccc(-c2cc(C(F)(F)F)nc(N)n2)cc1	inactive
CCN(Cc1ccccc1)S(=O)(=O)c1ccc(F)c(C(=O)Nc2ccc(C(C)C)cc2)c1	active: 14.6 µM
CC(C)(C)OC(=O)NCc1ccc(CNC(=O)c2[nH]cnc2C(=O)N[C@@H](Cc2ccccc2)C(=O)OCc2ccccc2)cc1	inconclusive: 18.4 µM [inhibitor, single point]
Cc1cccc(C)c1NC(=O)c1cc2sccc2n1Cc1ccc(F)cc1	inconclusive: 8.2 µM [inhibitor, partial curve, poor fit]
CC(NC(=O)CSc1nc2c(cc1C#N)CN(C)CC2)c1ccccc1 (stereo unspecified)	inconclusive: 20.6 µM [inhibitor, single point]
CC(=O)Nc1ccc(NC(=O)C(C)OC(=O)COc2ccc(Nc3ccccc3)cc2)cc1 (stereo unspecified)	inconclusive: 20.6 µM [inhibitor, single point]
COc1ccccc1CN(C)C(=O)c1cccc(S(=O)(=O)N2CCCc3ccccc32)c1	inconclusive: 23.1 µM [inhibitor, single point]

SMILES	Potency
Cc1scc(C(=O)N/N=C/c2ccc(OC(C)C)cc2)c1C	inconclusive: 25.9 µM [inhibitor, partial curve]
COc1ccc(-n2c(-c3ccc(Br)cc3)c[n+]3c2CCCCC3)cc1	active: 1.84 µM
OC(COc1ccc(F)cc1Cl)CN1CCC(Cc2ccccc2)CC1 (stereo unspecified)	inconclusive: 16.4 µM [inhibitor, single point]
CC(C)COc1ccc(-c2nnn(CC(=O)N3CCCC3)n2)cc1	inactive
COc1ccc(Nc2cc(C)nc(-n3nc(C)cc3C)n2)cc1	active: 0.517 µM
C=CCNC(=S)Nc1ccc2nc(C)oc2c1	inactive
O=C(O)c1ccccc1NS(=O)(=O)c1ccc(NN=Cc2cccc(Cl)c2)c([N+](=O)[O-])c1	inactive
Cc1cc(C)nc(NS(=O)(=O)c2ccc(NC(=O)c3nn(-c4ccccc4)ccc3=O)cc2)n1	inconclusive: 25.9 µM [inhibitor, single point]
O=Nc1c(O)[nH]c2ccc(Cl)cc12	inactive
CCn1cc(/C=N\NC(=O)C2(C)CC2(Cl)Cl)c(C)n1 (stereo unspecified)	inactive
O=C(COc1ccc(/C=N/NS(=O)(=O)c2ccccc2)cc1)Nc1cccc(Cl)c1	inconclusive: 29.1 µM [inhibitor, single point]
CCOc1ccc(CC(=O)NCc2ccc3c(c2)CCN3C(=O)c2ccc(F)cc2)cc1OCC	inconclusive: 18.4 µM [inhibitor, single point]
O=c1[nH]cc(CCCc2ccccc2)c(=O)[nH]1	inactive
CN1CCCC(CC2c3ccccc3Sc3ccccc32)C1 (stereo unspecified)	inconclusive: 12.8 µM [inhibitor, single point] and inconclusive: 29.1 µM [inhibitor, single point]
COc1cccc(NC(=O)COC(=O)c2ccc(C)c(S(=O)(=O)N3CCCCC3)c2)c1	inconclusive: 25.9 µM [inhibitor, single point]
Cc1ccc(Sc2c(C)nn(-c3ccccc3)c2OC(=O)CC(C)C)cc1	inactive
O=C(NCCc1ccc(Cl)cc1)c1ccc2c(c1)N(Cc1ccccc1)C(=O)CS2	active: 16.4 µM
CC(C)c1ccc(OCC(=O)N2CCCCCC2)c(Br)c1	inconclusive: 23.1 µM [inhibitor, single point]
O=C(ONC1=NCCCCC1)c1c(F)cccc1F	active: 16.4 µM
Cc1ccc(NC(=O)CN2C(=O)c3ccccc3Sc3ncccc32)c(C)c1	active: 23.1 µM
COc1ccc(OCc2nnc(NC(=O)Nc3ccccc3F)s2)cc1	inconclusive: 29.1 µM [inhibitor, single point]
O=c1ccc(C(F)(F)F)cn1Cc1cc(=O)n2ccsc2n1	inactive
CC1=CC(C)(C)N2C(=O)C3(SCC(=O)N3c3ccc(F)cc3)c3cc(C)cc1c32 (stereo unspecified)	active: 29.1 µM

— PubChem BioAssay AID686979 (National Center for Advancing Translational Sciences (NCATS), 2013)
